{"source": "the supplement of paper PMC8728848", "test_in_all_cases": "glycan array binding signal (z-score within array); higher = stronger binding", "conditions_in_all_cases": "glycan notation: IUPAC condensed, linker removed", "key": {"[1]": {"biological_target": "Fuc(a1-2)Gal6S(b1-3)GlcNAc", "in_short": "(§1)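 The binding signal is a Z-score computed within each array. Data were drawn from 3228 arrays in the Consortium for Functional Glycomics database, restricted to those with a known protein sequence. Scores were averaged over arrays of the same protein sequence at different concentrations or buffers, and over linkers, and negative values can be taken as non-binding.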"}, "[2]": {"biological_target": "Fuc(a1-2)Gal6S(b1-3)GlcNAc6S", "in_short": "as §1"}, "Fuc(a1-2)Gal6S(b1-4)Glc": {"biological_target": "Fuc(a1-2)Gal6S(b1-4)Glc", "in_short": "as §1"}, "[3]": {"biological_target": "Fuc(a1-2)Gal6S(b1-4)Glc6S", "in_short": "as §1"}, "Fuc(a1-2)[Gal(a1-3)]Gal": {"biological_target": "Fuc(a1-2)[Gal(a1-3)]Gal", "in_short": "as §1"}, "[4]": {"biological_target": "Fuc(a1-2)[Gal(a1-3)]Gal(b1-3)GalNAc", "in_short": "as §1"}, "[5]": {"biological_target": "Fuc(a1-2)[Gal(a1-3)]Gal(b1-3)GalNAc(b1-3)Gal(a1-4)Gal(b1-4)Glc", "in_short": "as §1"}, "[6]": {"biological_target": "Fuc(a1-2)[Gal(a1-3)]Gal(b1-3)GlcNAc", "in_short": "as §1"}, "[7]": {"biological_target": "Fuc(a1-2)[Gal(a1-3)]Gal(b1-3)GlcNAc(b1-2)Man(a1-3)[Fuc(a1-2)[Gal(a1-3)]Gal(b1-3)GlcNAc(b1-2)Man(a1-6)]Man(b1-4)GlcNAc(b1-4)GlcNAc", "in_short": "as §1"}, "[8]": {"biological_target": "Fuc(a1-2)[Gal(a1-3)]Gal(b1-3)GlcNAc(b1-2)Man(a1-3)[Fuc(a1-2)[Gal(a1-3)]Gal(b1-3)GlcNAc(b1-2)Man(a1-6)]Man(b1-4)GlcNAc(b1-4)[Fuc(a1-6)]GlcNAc", "in_short": "as §1"}, "[9]": {"biological_target": "Fuc(a1-2)[Gal(a1-3)]Gal(b1-3)GlcNAc(b1-3)GalNAc", "in_short": "as §1"}, "[10]": {"biological_target": "Fuc(a1-2)[Gal(a1-3)]Gal(b1-3)GlcNAc(b1-6)GalNAc", "in_short": "as §1"}, "[11]": {"biological_target": "Fuc(a1-2)[Gal(a1-3)]Gal(b1-4)Glc", "in_short": "as §1"}, "[12]": {"biological_target": "Fuc(a1-2)[Gal(a1-3)]Gal(b1-4)GlcNAc", "in_short": "as §1"}, "[13]": {"biological_target": "Fuc(a1-2)[Gal(a1-3)]Gal(b1-4)GlcNAc(b1-2)Man", "in_short": "as §1"}, "[14]": {"biological_target": "Fuc(a1-2)[Gal(a1-3)]Gal(b1-4)GlcNAc(b1-2)Man(a1-3)[Fuc(a1-2)[Gal(a1-3)]Gal(b1-4)GlcNAc(b1-2)Man(a1-6)]Man(b1-4)GlcNAc(b1-4)GlcNAc", "in_short": "as §1"}, "[15]": {"biological_target": "Fuc(a1-2)[Gal(a1-3)]Gal(b1-4)GlcNAc(b1-2)Man(a1-3)[Fuc(a1-2)[Gal(a1-3)]Gal(b1-4)GlcNAc(b1-2)Man(a1-6)]Man(b1-4)GlcNAc(b1-4)[Fuc(a1-6)]GlcNAc", "in_short": "as §1"}, "[16]": {"biological_target": "Fuc(a1-2)[Gal(a1-3)]Gal(b1-4)GlcNAc(b1-3)GalNAc", "in_short": "as §1"}, "[17]": {"biological_target": "Fuc(a1-2)[Gal(a1-3)]Gal(b1-4)GlcNAc(b1-3)[Fuc(a1-2)[Gal(a1-3)]Gal(b1-4)GlcNAc(b1-6)]GalNAc", "in_short": "as §1"}, "[18]": {"biological_target": "Fuc(a1-2)[Gal(a1-3)]Gal(b1-4)GlcNAc(b1-6)GalNAc", "in_short": "as §1"}, "[19]": {"biological_target": "Fuc(a1-2)[Gal(a1-3)]Gal(b1-4)[Fuc(a1-3)]Glc", "in_short": "as §1"}, "[20]": {"biological_target": "Fuc(a1-2)[Gal(a1-3)]Gal(b1-4)[Fuc(a1-3)]GlcNAc", "in_short": "as §1"}, "[21]": {"biological_target": "Fuc(a1-2)[Gal(a1-3)]Gal(b1-4)[Fuc(a1-3)]GlcNAc(b1-3)GalNAc", "in_short": "as §1"}, "[22]": {"biological_target": "Fuc(a1-2)[Gal(a1-4)]Gal(b1-4)GlcNAc", "in_short": "as §1"}, "[23]": {"biological_target": "Fuc(a1-2)[GalNAc(a1-3)]Gal", "in_short": "as §1"}, "[24]": {"biological_target": "Fuc(a1-2)[GalNAc(a1-3)]Gal(b1-3)GalNAc(a1-3)[Fuc(a1-2)]Gal(b1-4)GlcNAc", "in_short": "as §1"}, "[25]": {"biological_target": "Fuc(a1-2)[GalNAc(a1-3)]Gal(b1-3)GalNAc(b1-3)Gal(a1-4)Gal(b1-4)Glc", "in_short": "as §1"}, "[26]": {"biological_target": "Fuc(a1-2)[GalNAc(a1-3)]Gal(b1-3)GlcNAc", "in_short": "as §1"}, "[27]": {"biological_target": "Fuc(a1-2)[GalNAc(a1-3)]Gal(b1-3)GlcNAc(b1-2)Man(a1-3)[Fuc(a1-2)[GalNAc(a1-3)]Gal(b1-3)GlcNAc(b1-2)Man(a1-6)]Man(b1-4)GlcNAc(b1-4)GlcNAc", "in_short": "as §1"}, "[28]": {"biological_target": "Fuc(a1-2)[GalNAc(a1-3)]Gal(b1-3)GlcNAc(b1-2)Man(a1-3)[Fuc(a1-2)[GalNAc(a1-3)]Gal(b1-3)GlcNAc(b1-2)Man(a1-6)]Man(b1-4)GlcNAc(b1-4)[Fuc(a1-6)]GlcNAc", "in_short": "as §1"}, "[29]": {"biological_target": "Fuc(a1-2)[GalNAc(a1-3)]Gal(b1-3)GlcNAc(b1-3)GalNAc", "in_short": "as §1"}, "[30]": {"biological_target": "Fuc(a1-2)[GalNAc(a1-3)]Gal(b1-3)GlcNAc(b1-6)GalNAc", "in_short": "as §1"}, "[31]": {"biological_target": "Fuc(a1-2)[GalNAc(a1-3)]Gal(b1-4)Glc", "in_short": "as §1"}, "[32]": {"biological_target": "Fuc(a1-2)[GalNAc(a1-3)]Gal(b1-4)GlcNAc", "in_short": "as §1"}, "[33]": {"biological_target": "Fuc(a1-2)[GalNAc(a1-3)]Gal(b1-4)GlcNAc(b1-2)Man", "in_short": "as §1"}, "[34]": {"biological_target": "Fuc(a1-2)[GalNAc(a1-3)]Gal(b1-4)GlcNAc(b1-2)Man(a1-3)[Fuc(a1-2)[GalNAc(a1-3)]Gal(b1-4)GlcNAc(b1-2)Man(a1-6)]Man(b1-4)GlcNAc(b1-4)GlcNAc", "in_short": "as §1"}, "[35]": {"biological_target": "Fuc(a1-2)[GalNAc(a1-3)]Gal(b1-4)GlcNAc(b1-2)Man(a1-3)[Fuc(a1-2)[GalNAc(a1-3)]Gal(b1-4)GlcNAc(b1-2)Man(a1-6)]Man(b1-4)GlcNAc(b1-4)[Fuc(a1-6)]GlcNAc", "in_short": "as §1"}, "[36]": {"biological_target": "Fuc(a1-2)[GalNAc(a1-3)]Gal(b1-4)GlcNAc(b1-3)Gal(b1-4)GlcNAc", "in_short": "as §1"}, "[37]": {"biological_target": "Fuc(a1-2)[GalNAc(a1-3)]Gal(b1-4)GlcNAc(b1-3)Gal(b1-4)GlcNAc(b1-3)Gal(b1-4)GlcNAc", "in_short": "as §1"}, "[38]": {"biological_target": "Fuc(a1-2)[GalNAc(a1-3)]Gal(b1-4)GlcNAc(b1-3)GalNAc", "in_short": "as §1"}, "[39]": {"biological_target": "Fuc(a1-2)[GalNAc(a1-3)]Gal(b1-4)GlcNAc(b1-3)[Fuc(a1-2)[GalNAc(a1-3)]Gal(b1-4)GlcNAc(b1-6)]GalNAc", "in_short": "as §1"}, "[40]": {"biological_target": "Fuc(a1-2)[GalNAc(a1-3)]Gal(b1-4)GlcNAc(b1-6)GalNAc", "in_short": "as §1"}, "[41]": {"biological_target": "Fuc(a1-2)[GalNAc(a1-3)]Gal(b1-4)[Fuc(a1-3)]GlcNAc", "in_short": "as §1"}, "[42]": {"biological_target": "Fuc(a1-2)[GalNAc(a1-3)]Gal(b1-4)[Fuc(a1-3)]GlcNAc(b1-3)GalNAc", "in_short": "as §1"}, "[43]": {"biological_target": "Fuc(a1-2)[GalNAc(a1-4)]Gal(b1-4)GlcNAc", "in_short": "as §1"}}, "note": "The list shows a part of the results."}
{"binder": "LBL-152 (Laetiporus bicolor), B0D650 (protein) MSNEYNPPLGIAFRLCGLASDRVLFSRVSPSPEVFHHPKSEVYPDQWFVAIPGSGQNAGCYAIKSKNTGKVLFSRMSPDPRVGHIDGDGKYPDNWFKFEAGSGKYAGYFRLRAVASDTVLVSRTSTGTDTQVINYPATSAKYDDQYFTILFDHHHHHH", "values": [{"measurement": "glycan array binding signal (z-score)", "setting": "[1]", "value": -0.153}, {"measurement": "glycan array binding signal (z-score)", "setting": "[2]", "value": -0.15}, {"measurement": "glycan array binding signal (z-score)", "setting": "Fuc(a1-2)Gal6S(b1-4)Glc", "value": -0.146}, {"measurement": "glycan array binding signal (z-score)", "setting": "[3]", "value": -0.158}, {"measurement": "glycan array binding signal (z-score)", "setting": "Fuc(a1-2)[Gal(a1-3)]Gal", "value": -0.145}, {"measurement": "glycan array binding signal (z-score)", "setting": "[4]", "value": -0.146}, {"measurement": "glycan array binding signal (z-score)", "setting": "[5]", "value": -0.154}, {"measurement": "glycan array binding signal (z-score)", "setting": "[6]", "value": -0.153}, {"measurement": "glycan array binding signal (z-score)", "setting": "[7]", "value": -0.149}, {"measurement": "glycan array binding signal (z-score)", "setting": "[8]", "value": -0.155}, {"measurement": "glycan array binding signal (z-score)", "setting": "[9]", "value": -0.155}, {"measurement": "glycan array binding signal (z-score)", "setting": "[10]", "value": -0.156}, {"measurement": "glycan array binding signal (z-score)", "setting": "[11]", "value": -0.157}, {"measurement": "glycan array binding signal (z-score)", "setting": "[12]", "value": -0.152}, {"measurement": "glycan array binding signal (z-score)", "setting": "[13]", "value": -0.153}, {"measurement": "glycan array binding signal (z-score)", "setting": "[14]", "value": -0.147}, {"measurement": "glycan array binding signal (z-score)", "setting": "[15]", "value": -0.151}, {"measurement": "glycan array binding signal (z-score)", "setting": "[16]", "value": -0.157}, {"measurement": "glycan array binding signal (z-score)", "setting": "[17]", "value": -0.152}, {"measurement": "glycan array binding signal (z-score)", "setting": "[18]", "value": -0.151}, {"measurement": "glycan array binding signal (z-score)", "setting": "[19]", "value": -0.153}, {"measurement": "glycan array binding signal (z-score)", "setting": "[20]", "value": -0.155}, {"measurement": "glycan array binding signal (z-score)", "setting": "[21]", "value": -0.151}, {"measurement": "glycan array binding signal (z-score)", "setting": "[22]", "value": -0.136}, {"measurement": "glycan array binding signal (z-score)", "setting": "[23]", "value": -0.151}, {"measurement": "glycan array binding signal (z-score)", "setting": "[24]", "value": -0.159}, {"measurement": "glycan array binding signal (z-score)", "setting": "[25]", "value": -0.157}, {"measurement": "glycan array binding signal (z-score)", "setting": "[26]", "value": -0.161}, {"measurement": "glycan array binding signal (z-score)", "setting": "[27]", "value": -0.156}, {"measurement": "glycan array binding signal (z-score)", "setting": "[28]", "value": -0.157}, {"measurement": "glycan array binding signal (z-score)", "setting": "[29]", "value": -0.15}, {"measurement": "glycan array binding signal (z-score)", "setting": "[30]", "value": -0.157}, {"measurement": "glycan array binding signal (z-score)", "setting": "[31]", "value": -0.157}, {"measurement": "glycan array binding signal (z-score)", "setting": "[32]", "value": -0.156}, {"measurement": "glycan array binding signal (z-score)", "setting": "[33]", "value": -0.156}, {"measurement": "glycan array binding signal (z-score)", "setting": "[34]", "value": -0.156}, {"measurement": "glycan array binding signal (z-score)", "setting": "[35]", "value": -0.156}, {"measurement": "glycan array binding signal (z-score)", "setting": "[36]", "value": -0.157}, {"measurement": "glycan array binding signal (z-score)", "setting": "[37]", "value": -0.078}, {"measurement": "glycan array binding signal (z-score)", "setting": "[38]", "value": -0.155}, {"measurement": "glycan array binding signal (z-score)", "setting": "[39]", "value": -0.155}, {"measurement": "glycan array binding signal (z-score)", "setting": "[40]", "value": -0.16}, {"measurement": "glycan array binding signal (z-score)", "setting": "[41]", "value": -0.153}, {"measurement": "glycan array binding signal (z-score)", "setting": "[42]", "value": -0.149}, {"measurement": "glycan array binding signal (z-score)", "setting": "[43]", "value": -0.156}]}
